From PubChem BioAssay AID504832 (National Center for Advancing Translational Sciences (NCATS), 2011)
Hit rate of the full screen: of about 310,000 compounds, about 18,000 (5.8%) were called active. Inconclusive results, whose numbers are uncertain, are shown with a selection of clear calls. Calls follow the shape of the dose curve; as a rule, active = well fitted inhibition curve with a large enough effect; inconclusive = small, poorly fitted or top-dose-only effect, or another doubt; inactive = no such curve, though single readings can be large or run the other way. Potencies of inconclusive entries are left out as doubtful fits.

Experiment: Primary qHTS for delayed death inhibitors of the malarial parasite plastid, 48 hour incubation
Conditions: P. falciparum luciferase growth in erythrocytes; series mostly up to 28.7 µM; activity change, negative = inhibition: at the top concentration
Outline: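 Luciferase-expressing P. falciparum in infected erythrocytes (2% hematocrit, 0.1% parasitemia final) in RPMI 1640/0.5% Albumax were exposed to compound for 48 hours at 37 C, 5% CO2; growth read as luminescence.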
% is scaled to controls: 0 for no effect and ±100 for the full control effect; potency is read from the fitted curve at half-maximal effect; tags tell the direction and shape of the fitted curve.

SMILES | Potency | activity change, negative = inhibition
Cc1ccc(NS(=O)(=O)c2cc(C(=O)NCCCN(C)C)ccc2Cl)cc1Cl | active: 6.57 µM | –
CCC1CCCCN1S(=O)(=O)c1ccc(C(=O)Nc2nnc(C3CC3)o2)cc1 (stereo not given) | active: 13.1 µM | –
COc1ccc(OC)c(C(=O)c2ccc(C(=O)Nc3ccc4ccccc4c3)cc2)c1 | inconclusive [inhibitor, single point] | –
Cc1ccccc1OCC(=O)OC1CCN(C)CC1 | inconclusive [inhibitor, full curve, poor fit] | –
CCn1nnnc1SCC(=O)Nc1cccc(C)n1 | – | inactive: 33.1%
Cc1cccc2nc(-c3cccnc3)c(Nc3ccccc3)n12 | inconclusive [inhibitor, partial curve, poor fit] | –
CCN(c1ccccc1)S(=O)(=O)c1ccc(C(=O)Nc2cccc(C)n2)cc1 | active: 9.28 µM | –
Cc1ccccc1NC(=O)N1CCNC(=O)C1CC(=O)Nc1cc(Cl)ccc1Cl (stereo not given) | inconclusive [inhibitor, single point] | –
CCOc1ccc(-c2ncncc2-c2ccc(OC)c(OC)c2)c(O)c1 | inconclusive [inhibitor, single point] | –
O=C(Nc1ccc(Cl)cc1)N1CCSc2ccccc21 | inconclusive [inhibitor, single point] | –
COc1ccccc1C(=O)Nc1ccc2nc(SCC(=O)N(C)C)sc2c1 | inconclusive [inhibitor, single point] | –
COc1cc(OC)c(/C=N/NC(=O)c2ccc(NC(C)=O)cc2)cc1Br | – | inactive: 9.3%
COC(=O)Cn1cc(/C=C(/C#N)C(=O)N2CCOCC2)c2ccccc21 | – | inactive: 8.32%
Cc1onc(-c2c(F)cccc2Cl)c1C(=O)N1CCCCC1 | inconclusive [inhibitor, single point] | –
CS(=O)(=O)c1ccc(Cl)c(NC(=O)c2cc(S(=O)(=O)N3CCOCC3)ccc2N2CCCC2)c1 | inconclusive [inhibitor, partial curve, poor fit] | –
COC(=O)c1ccc(N2C(=O)CC(N(C)Cc3ccccc3)C2=O)cc1 (stereo not given) | – | inactive: 14%
O=C(COC(=O)/C=C/c1cccc(Br)c1)Nc1cccc(S(=O)(=O)NC2=NCCC2)c1 | – | inactive: 12.2%
COC(=O)c1cc(C#N)c(NCc2ccccc2)nc1C | – | inactive: 17.9%
CCC(C)[C@H](Nc1nc(-c2ccccc2)nc2c1oc1ccccc12)C(=O)O (stereo not given in full) | inconclusive [inhibitor, single point] | –
COc1cc(OC)c(N2CC(C(=O)Nc3cc(Cl)ccc3N3CCOCC3)CC2=O)cc1Cl (stereo not given) | active: 11.7 µM | –
